# Source: the supplement of paper PMC8728848
# Some of the results follow.
# Columns and labels:
# Test in all cases: glycan array binding signal (z-score within array); higher = stronger binding
# Settings in all cases: glycan notation: IUPAC condensed, linker removed
# [1] = biological target: Fuc(a1-2)Gal
# How it was run: (§1)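 Glycan array binding is given as a within-array Z-score, which can be read as non-binding when negative. The arrays, 3228 of them, came from the Consortium for Functional Glycomics database and were retained only where the protein sequence was available. Z-scores were averaged across arrays of the same protein sequence at different concentrations or buffers and across linkers.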
# [2] = biological target: Fuc(a1-2)Gal(b1-3)GalNAc
# How it was run: as §1
# [3] = biological target: Fuc(a1-2)Gal(b1-3)GalNAc(a1-3)[Fuc(a1-2)]Gal(b1-4)Glc
# How it was run: as §1
# [4] = biological target: Fuc(a1-2)Gal(b1-3)GalNAc(a1-3)[Fuc(a1-2)]Gal(b1-4)GlcNAc
# How it was run: as §1
# [5] = biological target: Fuc(a1-2)Gal(b1-3)GalNAc(b1-3)Gal
# How it was run: as §1
# [6] = biological target: Fuc(a1-2)Gal(b1-3)GalNAc(b1-3)Gal(a1-4)Gal(b1-4)Glc
# How it was run: as §1
# [7] = biological target: Fuc(a1-2)Gal(b1-3)GalNAc(b1-4)[Neu5Ac(a2-3)]Gal(b1-4)Glc
# How it was run: as §1
# [8] = biological target: Fuc(a1-2)Gal(b1-3)GlcNAc
# How it was run: as §1
# [9] = biological target: Fuc(a1-2)Gal(b1-3)GlcNAc(b1-2)Man(a1-3)[Fuc(a1-2)Gal(b1-3)GlcNAc(b1-2)Man(a1-6)]Man(b1-4)GlcNAc(b1-4)GlcNAc
# How it was run: as §1
# [10] = biological target: Fuc(a1-2)Gal(b1-3)GlcNAc(b1-2)Man(a1-3)[Fuc(a1-2)Gal(b1-3)GlcNAc(b1-2)Man(a1-6)]Man(b1-4)GlcNAc(b1-4)[Fuc(a1-6)]GlcNAc
# How it was run: as §1
# [11] = biological target: Fuc(a1-2)Gal(b1-3)GlcNAc(b1-3)Gal(b1-4)Glc
# How it was run: as §1
# [12] = biological target: Fuc(a1-2)Gal(b1-3)GlcNAc(b1-3)GalNAc
# How it was run: as §1
# [13] = biological target: Fuc(a1-2)Gal(b1-3)GlcNAc(b1-3)[Fuc(a1-2)Gal(b1-3)GlcNAc(b1-6)]GalNAc
# How it was run: as §1
# [14] = biological target: Fuc(a1-2)Gal(b1-3)GlcNAc(b1-3)[Gal(b1-4)GlcNAc(b1-6)]Gal(b1-4)Glc
# How it was run: as §1
# [15] = biological target: Fuc(a1-2)Gal(b1-3)GlcNAc(b1-3)[Gal(b1-4)[Fuc(a1-3)]GlcNAc(b1-6)]Gal(b1-4)Glc
# How it was run: as §1
# [16] = biological target: Fuc(a1-2)Gal(b1-3)GlcNAc(b1-3)[Neu5Ac(a2-6)Gal(b1-4)GlcNAc(b1-6)]Gal(b1-4)Glc
# How it was run: as §1
# [17] = biological target: Fuc(a1-2)Gal(b1-3)GlcNAc6S
# How it was run: as §1
# [18] = biological target: Fuc(a1-2)Gal(b1-3)[Fuc(a1-4)]GlcNAc
# How it was run: as §1
# [19] = biological target: Fuc(a1-2)Gal(b1-3)[Fuc(a1-4)]GlcNAc(b1-2)Man(a1-3)[Fuc(a1-2)Gal(b1-3)[Fuc(a1-4)]GlcNAc(b1-2)Man(a1-3)]Man(b1-4)GlcNAc(b1-4)GlcNAc
# How it was run: as §1
# [20] = biological target: Fuc(a1-2)Gal(b1-3)[Fuc(a1-4)]GlcNAc(b1-2)Man(a1-3)[Fuc(a1-2)Gal(b1-3)[Fuc(a1-4)]GlcNAc(b1-2)Man(a1-6)]Man(b1-4)GlcNAc(b1-4)GlcNAc
# How it was run: as §1
# [21] = biological target: Fuc(a1-2)Gal(b1-3)[Fuc(a1-4)]GlcNAc(b1-2)Man(a1-3)[Fuc(a1-2)Gal(b1-3)[Fuc(a1-4)]GlcNAc(b1-2)Man(a1-6)]Man(b1-4)GlcNAc(b1-4)[Fuc(a1-6)]GlcNAc(b1-4)[Fuc(a1-6)]GlcNAc
# How it was run: as §1
# [22] = biological target: Fuc(a1-2)Gal(b1-3)[Fuc(a1-4)]GlcNAc(b1-3)[Fuc(a1-3)[Gal(b1-4)]GlcNAc(b1-6)]Gal(b1-4)Glc
# How it was run: as §1
# [23] = biological target: Fuc(a1-2)Gal(b1-3)[Fuc(a1-4)]GlcNAc(b1-3)[Gal(b1-4)GlcNAc(b1-6)]Gal(b1-4)Glc
# How it was run: as §1
# [24] = biological target: Fuc(a1-2)Gal(b1-4)Fuc(a1-3)]GlcNAc(b1-2)Man(a1-3)[Fuc(a1-2)Gal(b1-4)[Fuc(a1-3)]GlcNAc(b1-2)Man(a1-6)]Man(b1-4)GlcNAc(b1-4)GlcNAc
# How it was run: as §1
# [25] = biological target: Fuc(a1-2)Gal(b1-4)Glc
# How it was run: as §1
# [26] = biological target: Fuc(a1-2)Gal(b1-4)Glc6S
# How it was run: as §1
# [27] = biological target: Fuc(a1-2)Gal(b1-4)GlcNAc
# How it was run: as §1
# [28] = biological target: Fuc(a1-2)Gal(b1-4)GlcNAc(b1-2)Man
# How it was run: as §1
# [29] = biological target: Fuc(a1-2)Gal(b1-4)GlcNAc(b1-2)Man(a1-3)[Fuc(a1-2)Gal(b1-4)GlcNAc(b1-2)Man(a1-6)]Man(b1-4)GlcNAc(b1-4)GlcNAc
# How it was run: as §1
# [30] = biological target: Fuc(a1-2)Gal(b1-4)GlcNAc(b1-2)Man(a1-3)[Fuc(a1-2)Gal(b1-4)GlcNAc(b1-2)Man(a1-6)]Man(b1-4)GlcNAc(b1-4)[Fuc(a1-6)]GlcNAc
# How it was run: as §1
binder,measurement,setting,value
"HPAIIITrx (Helix pomatia), Q1KM18 (protein) MLFVTIISLGLLAIVHGQCALKTIAFSAAIDREQTFDANQVVIYDIVITNHGNAYDNSTGLFTAPVDGMYSFQLNLLTIKEKEGWLELVHNGQLKVSVYAKQDSTYDSSSNSVIIKMKEGDRVNVRAHKKSGLFGRDDELYNTFSGHFLSGL",glycan array binding signal (z-score),[1],-0.193
same,glycan array binding signal (z-score),[2],0.423
same,glycan array binding signal (z-score),[3],-0.232
same,glycan array binding signal (z-score),[4],0.09
same,glycan array binding signal (z-score),[5],2.9
same,glycan array binding signal (z-score),[6],0.822
same,glycan array binding signal (z-score),[7],-0.4
same,glycan array binding signal (z-score),[8],0.164
same,glycan array binding signal (z-score),[9],3.03
same,glycan array binding signal (z-score),[10],-0.136
same,glycan array binding signal (z-score),[11],-0.184
same,glycan array binding signal (z-score),[12],-0.247
same,glycan array binding signal (z-score),[13],-0.117
same,glycan array binding signal (z-score),[14],-0.349
same,glycan array binding signal (z-score),[15],-0.143
same,glycan array binding signal (z-score),[16],-0.416
same,glycan array binding signal (z-score),[17],-0.244
same,glycan array binding signal (z-score),[18],0.614
same,glycan array binding signal (z-score),[19],0.629
same,glycan array binding signal (z-score),[20],3.07
same,glycan array binding signal (z-score),[21],-0.327
same,glycan array binding signal (z-score),[22],-0.503
same,glycan array binding signal (z-score),[23],-0.355
same,glycan array binding signal (z-score),[24],0.305
same,glycan array binding signal (z-score),[25],-0.056
same,glycan array binding signal (z-score),[26],-0.178
same,glycan array binding signal (z-score),[27],-0.3
same,glycan array binding signal (z-score),[28],-0.136
same,glycan array binding signal (z-score),[29],-0.108
same,glycan array binding signal (z-score),[30],0.33
